The list shows a part of the results.
Columns and labels:
Assay in all cases: glycan array binding signal (z-score within array); higher = stronger binding
Conditions in all cases: glycan notation: IUPAC condensed, linker removed; mutation: F335Y
[1] = biological target: Fuc(a1-2)[GalNAc(a1-3)]Gal(b1-4)[Fuc(a1-3)]GlcNAc
Outline: (§1)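 Glycan array binding is given as a within-array Z-score, which can be read as non-binding when negative. The arrays, 3228 of them, came from the Consortium for Functional Glycomics database and were retained only where the protein sequence was available. Z-scores were averaged across arrays of the same protein sequence at different concentrations or buffers and across linkers.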

[2] = biological target: Fuc(a1-2)[GalNAc(a1-4)]Gal(b1-4)GlcNAc
Outline: as §1

[3] = biological target: Fuc(a1-2)[GalNAc(b1-3)]Gal
Outline: as §1

Fuc(a1-3)GlcNAc = biological target: Fuc(a1-3)GlcNAc
Outline: as §1

[4] = biological target: Fuc(a1-3)[Gal(b1-4)]Glc6S
Outline: as §1

[5] = biological target: Fuc(a1-3)[Gal(b1-4)]GlcNAc
Outline: as §1

[6] = biological target: Fuc(a1-3)[Gal(b1-4)]GlcNAc(b1-2)Man(a1-3)[Fuc(a1-3)[Gal(b1-4)]GlcNAc(b1-2)Man(a1-6)]Man(b1-4)GlcNAc(b1-4)GlcNAc
Outline: as §1

[7] = biological target: Fuc(a1-3)[Gal(b1-4)]GlcNAc(b1-2)Man(a1-6)[Gal(b1-4)GlcNAc(b1-2)Man(a1-3)]Man(b1-4)GlcNAc(b1-4)GlcNAc
Outline: as §1

[8] = biological target: Fuc(a1-3)[Gal(b1-4)]GlcNAc(b1-3)Gal(b1-3)[Fuc(a1-4)]GlcNAc
Outline: as §1

[9] = biological target: Fuc(a1-3)[Gal(b1-4)]GlcNAc(b1-4)Gal(b1-4)[Fuc(a1-3)]GlcNAc
Outline: as §1

[10] = biological target: Fuc(a1-3)[Gal(b1-4)]GlcNAc(b1-4)Gal(b1-4)[Fuc(a1-3)]GlcNAc(b1-4)Gal(b1-4)[Fuc(a1-3)]GlcNAc
Outline: as §1

[11] = biological target: Fuc(a1-3)[Gal(b1-4)]GlcNAc6S
Outline: as §1

[12] = biological target: Fuc(a1-3)[Gal3S(b1-4)]Glc6S
Outline: as §1

[13] = biological target: Fuc(a1-3)[Gal3S(b1-4)]GlcNAc
Outline: as §1

[14] = biological target: Fuc(a1-3)[Gal3S(b1-4)]GlcNAc6S
Outline: as §1

[15] = biological target: Fuc(a1-3)[GalNAc(b1-4)]GlcNAc
Outline: as §1

Fuc(a1-4)GlcNAc = biological target: Fuc(a1-4)GlcNAc
Outline: as §1

Fuc(b1-3)GlcNAc = biological target: Fuc(b1-3)GlcNAc
Outline: as §1

Gal(a1-2)Gal = biological target: Gal(a1-2)Gal
Outline: as §1

Gal(a1-3)Gal = biological target: Gal(a1-3)Gal
Outline: as §1

Gal(a1-3)Gal(b1-3)GlcNAc = biological target: Gal(a1-3)Gal(b1-3)GlcNAc
Outline: as §1

Gal(a1-3)Gal(b1-4)Glc = biological target: Gal(a1-3)Gal(b1-4)Glc
Outline: as §1

Gal(a1-3)Gal(b1-4)GlcNAc = biological target: Gal(a1-3)Gal(b1-4)GlcNAc
Outline: as §1

[16] = biological target: Gal(a1-3)Gal(b1-4)[Fuc(a1-3)]GlcNAc
Outline: as §1

Gal(a1-3)GalNAc = biological target: Gal(a1-3)GalNAc
Outline: as §1

[17] = biological target: Gal(a1-3)[Gal(a1-4)]Gal(b1-4)GlcNAc
Outline: as §1

Gal(a1-4)Gal(b1-4)Glc = biological target: Gal(a1-4)Gal(b1-4)Glc
Outline: as §1

Gal(a1-4)Gal(b1-4)GlcNAc = biological target: Gal(a1-4)Gal(b1-4)GlcNAc
Outline: as §1

Gal(a1-4)GlcNAc = biological target: Gal(a1-4)GlcNAc
Outline: as §1

Gal(a1-6)Glc = biological target: Gal(a1-6)Glc
Outline: as §1

Gal(b1-2)Gal = biological target: Gal(b1-2)Gal
Outline: as §1

Gal(b1-3)Gal = biological target: Gal(b1-3)Gal
Outline: as §1

Gal(b1-3)Gal(b1-4)GlcNAc = biological target: Gal(b1-3)Gal(b1-4)GlcNAc
Outline: as §1

Gal(b1-3)GalNAc = biological target: Gal(b1-3)GalNAc
Outline: as §1

[18] = biological target: Gal(b1-3)GalNAc(b1-3)Gal(a1-4)Gal(b1-4)Glc
Outline: as §1

[19] = biological target: Gal(b1-3)GalNAc(b1-4)Gal(b1-4)Glc
Outline: as §1

[20] = biological target: Gal(b1-3)GalNAc(b1-4)[Neu5Ac(a2-3)]Gal(b1-4)Glc
Outline: as §1

B1: Surfactant Protein D (Human); Neck + Carbohydrate Recognition Domain (NCRD) (Homo sapiens) (protein)
chain: MLLFLLSALVLLTQPLGYLEAEMKTYSHRTMPSACTLVMCSSVESGLPGRDRDGREGPRGEKGDPGLPGAAGQAGMPGQAGPVGPKGDNGSVGEPGPKGDTGPSGPPGPPGVPGPAGREGALGKQGNIGPQGKPGPKGEAGPKGEVGAPGMQGSAGARGLAGPKGERGVPGERGVPGNTGAAGSAGAMGPQGSPGARGPPGLKGDKGIPGDKGAKGESGLPDVASLRQQVEALQGQVQHLQAAFSQYKKVELFPNGQSVGEKIFKTAQFVKPFTEAQLLCTQAGGQLASPRSAAENAALQQLVVAKNEAAFLSMTDSKTEGKFTYPTGESLVYSNWAPGEPNDDGGSEDCVEIYTNGKWNDRACGEKRLVVCEF
glycan array binding signal (z-score) [1]: -0.155 | glycan array binding signal (z-score) [2]: -0.176 | glycan array binding signal (z-score) [3]: -0.177 | glycan array binding signal (z-score) (Fuc(a1-3)GlcNAc): -0.145 | glycan array binding signal (z-score) [4]: -0.192 | glycan array binding signal (z-score) [5]: -0.181 | glycan array binding signal (z-score) [6]: -0.19 | glycan array binding signal (z-score) [7]: -0.189 | glycan array binding signal (z-score) [8]: -0.181 | glycan array binding signal (z-score) [9]: -0.183 | glycan array binding signal (z-score) [10]: -0.188 | glycan array binding signal (z-score) [11]: -0.166 | glycan array binding signal (z-score) [12]: -0.154 | glycan array binding signal (z-score) [13]: -0.187 | glycan array binding signal (z-score) [14]: -0.083 | glycan array binding signal (z-score) [15]: -0.188 | glycan array binding signal (z-score) (Fuc(a1-4)GlcNAc): -0.07 | glycan array binding signal (z-score) (Fuc(b1-3)GlcNAc): -0.188 | glycan array binding signal (z-score) (Gal(a1-2)Gal): -0.166 | glycan array binding signal (z-score) (Gal(a1-3)Gal): -0.167 | glycan array binding signal (z-score) (Gal(a1-3)Gal(b1-3)GlcNAc): -0.152 | glycan array binding signal (z-score) (Gal(a1-3)Gal(b1-4)Glc): -0.18 | glycan array binding signal (z-score) (Gal(a1-3)Gal(b1-4)GlcNAc): -0.188 | glycan array binding signal (z-score) [16]: -0.184 | glycan array binding signal (z-score) (Gal(a1-3)GalNAc): -0.185 | glycan array binding signal (z-score) [17]: -0.184 | glycan array binding signal (z-score) (Gal(a1-4)Gal(b1-4)Glc): -0.189 | glycan array binding signal (z-score) (Gal(a1-4)Gal(b1-4)GlcNAc): -0.187 | glycan array binding signal (z-score) (Gal(a1-4)GlcNAc): -0.195 | glycan array binding signal (z-score) (Gal(a1-6)Glc): -0.189 | glycan array binding signal (z-score) (Gal(b1-2)Gal): -0.189 | glycan array binding signal (z-score) (Gal(b1-3)Gal): -0.19 | glycan array binding signal (z-score) (Gal(b1-3)Gal(b1-4)GlcNAc): -0.183 | glycan array binding signal (z-score) (Gal(b1-3)GalNAc): -0.19 | glycan array binding signal (z-score) [18]: -0.193 | glycan array binding signal (z-score) [19]: -0.192 | glycan array binding signal (z-score) [20]: -0.174
